Test results from PubChem BioAssay AID686978 (National Center for Advancing Translational Sciences (NCATS), 2013).
Screen size: about 420,000 compounds; about 64,000 (15%) were called active. The shares of active, inactive and inconclusive entries below differ from those in the screen. Calls follow the shape of the dose curve; as a rule, active = well fitted inhibition curve with a large enough effect; inconclusive = small, poorly fitted or top-dose-only effect; inactive = flat fitted curve, though single readings scatter. Potencies of inconclusive entries are left out as doubtful fits.

Test: qHTS for Inhibitors of human tyrosyl-DNA phosphodiesterase 1 (TDP1): qHTS in cells in absence of CPT; also: nearly all actives have a fitted effect of over 55% in size
Details: DT40 Tdp1-/- hTDP1 cells, no CPT, ATP luminescence, 48 h; activity change, negative = growth inhibition: at 46.2 µM (top of the series) unless noted
How it was run: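 Cells were dispensed at 400 per well, compounds added by pin tool, plates incubated ≥48 hr at 37 °C, then CellTiter-Glo added for 30 min at room temperature before luminescence reading. Line: DT40 Tdp1-/- complemented with hTDP1; camptothecin omitted.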
% is scaled to controls: 0 for no effect and ±100 for the full control effect; potency is read from the fitted curve at half-maximal effect; tags tell the direction and shape of the fitted curve.

SMILES | Potency | activity change, negative = growth inhibition
CCn1cc(C(=O)NCCC(=O)NCCCO)c(=O)c2cc3c(cc21)OCO3 | inactive | 
CCc1nnc(NC(=O)c2ccc(-c3ccc(C(C)=O)cc3)o2)s1 | inactive | 
CCCN1CCC(CCOc2ccccc2)(C(=O)OCC)CC1 | inactive | 
COc1ccc(C2CC(c3ccc(C(F)(F)F)cc3)=NN2c2ccc(S(N)(=O)=O)cc2)cc1 (configuration not stated) | inconclusive [inhibitor, single point] | 
c1ccc(N2CCOCCOCCOCCOCCOCC2)cc1 | inactive | 
O=[N+]([O-])c1ccc(CN2CC(N3CC=CC3)CS2(=O)=O)cc1 (configuration not stated) | inconclusive [inhibitor, single point] | 
CCc1nc(N2CCCC2)c(C#N)c2c1CCCC2 | inconclusive [inhibitor, single point] | 
CCc1cc(=O)oc2c(C)c(OCC(=O)N3CC[C@@]4(O)CCCC[C@H]4C3)ccc12 | inactive | 
CCOC(=O)C1(C)CCCN1C(=O)c1snnc1C (configuration not stated) | inactive | 
CN(C)c1ccc(C(=O)Nc2cc(C(F)(F)F)ccc2-n2cncn2)cc1 | inconclusive [inhibitor, single point] | 
O=C(OCc1cc(=O)n2cc(Br)ccc2n1)c1ccc(Cl)c(S(=O)(=O)NCc2ccccc2)c1 | inconclusive [inhibitor, single point] | 
CCOc1ccc(C2NC(=O)C(C#N)=C(S)N2c2cccc(C)c2)cc1OC (configuration not stated) | inconclusive [inhibitor, single point] | 
Cn1nnnc1SCC(=O)N1CCN(Cc2ccccc2)CC1 | inactive | 
COc1ccccc1C(=O)c1cn(CC(=O)Nc2ccccc2F)c2nc(C)ccc2c1=O | inactive | 
Cc1ccc(O)c(-c2cc(C(=O)NCc3ccc4c(c3)OCO4)[nH]n2)c1 | inconclusive [inhibitor, single point] | 
Cc1ccc(C)c(N2CCN(C(=O)c3cc(S(=O)(=O)N4CCC(C)CC4)cn3C)CC2)c1 | inconclusive [inhibitor, single point] | 
COc1cc(NC(=S)NNC(=O)CC(C)C)c(OC)cc1Cl | inconclusive [inhibitor, single point] | 
CCOC(=O)c1c(C)[nH]c(C(=O)COC(=O)C2(C)CC2(Cl)Cl)c1C (configuration not stated) | inactive | 
COc1ccc(COc2cccc(C=O)c2)cc1 | active: 4.61 µM | 
COc1ccc(NC(=S)N(CCc2c(C)[nH]c3ccc(C)cc23)Cc2cccs2)cc1 | inconclusive [inhibitor, single point] | 
CCN(CC(=O)Nc1cc(Cl)ccc1C)C(=O)CC1CCCC1 | inconclusive [inhibitor, single point] | 

SMILES | Potency | activity change, negative = growth inhibition
COc1ccc(-c2cc(C(=O)N(C)CC(=O)Nc3cccc(F)c3)c3ccccc3n2)cc1 | inconclusive [inhibitor, single point] | 
O=C(O)CSC1CC(=O)N(c2cccc(Cl)c2)C1=O (configuration not stated) |  | inconclusive: -5.6% [inhibitor]
CN1CCN(C2=C(Cl)C(=O)N(c3ccc(Cl)c(Cl)c3)C2=O)CC1 | inconclusive [inhibitor, single point] | 
COC(=O)Cc1c(C)nc2nc(-c3ccc(C)cc3)[nH]n2c1=O | inconclusive [inhibitor, single point] | 
CCOc1ccc(S(=O)(=O)N2CCC(C(=O)NCc3ccccc3CN3CCCC3)CC2)cc1 | inactive | 
CCOc1ccc(CCNC(=O)c2cnc3sc(N4CCCCC4)nn3c2=O)cc1 | inactive | 
O=C(Nc1ccccc1C(=O)OCC(=O)N1CCc2ccccc2C1)c1ccco1 | inconclusive [inhibitor, partial curve, poor fit] | 
Clc1ccc(-c2nc3cnccn3c2NC2CCCC2)cc1 | active: 25.9 µM | 
Cc1ccc(CNC(=O)c2ccc(Cl)c(S(=O)(=O)N3CCCCC3)c2)cc1 | inactive | 
Brc1cccc[n+]1CCCC[n+]1ccccc1Br | active: 15.8 µM | 
CCn1c(CCCNC(=O)c2ccc(F)cc2)nc2ccccc21 | inconclusive [inhibitor, single point] | 
COCCNc1nc2cc(-c3ccccc3)sc2c(=O)n1C | inconclusive [inhibitor, single point] | 
C=CCn1c(SC(C)CC)nc(O)cc1=O (configuration not stated) | inactive | 
COc1cc(C=O)cc(Cl)c1OC(=O)N1CCOCC1 | inactive | 
CC(C)[C@H](CO)Nc1nc(NCc2ccc(S(N)(=O)=O)cc2)c2ncn(C(C)C)c2n1 | inconclusive [inhibitor, single point] | 
Cc1[nH]c2ccc(F)cc2c1CCN(Cc1ccncc1)C(=S)Nc1ccc(F)cc1 | inconclusive [inhibitor, single point] | 
COc1ccc(S(=O)(=O)Cc2ccc(C(=O)NC3CCC(C)CC3)o2)cc1 (configuration not stated) | inconclusive [inhibitor, single point] | 
CCOC(=O)C1CCCN(CC(O)COC(c2ccccc2)c2ccccc2)C1 (configuration not stated) | inconclusive [inhibitor, single point] | 
O=C(c1ccc(Cl)c(S(=O)(=O)N2CCc3ccccc32)c1)N1CCN(c2ccccc2O)CC1 | active: 23.1 µM | 
COc1cc(=O)n2c(c1C(=O)NCc1ccco1)CCN(C(=O)c1cccnc1SC)CC2 | inactive | 
Cc1cccc(NC(=O)c2ccc(NC(=O)CC3SC(N4CCCC4)=NC3=O)cc2)n1 (configuration not stated) | inconclusive [inhibitor, single point] | 

SMILES | Potency | activity change, negative = growth inhibition
CCC(=O)c1ccc(OCC(=O)NNC(=O)c2cc(C)oc2C)cc1 | inactive | 
COc1ccc(-c2nc3ccc(Cl)cn3c2Cc2ccsc2)cc1OC | inconclusive [inhibitor, single point] | 
CCc1nc2c(OCCC3CCCCC3)cccn2c1N(C)C(=O)c1ccncc1 | active: 14.6 µM | 
CC(C)c1ccc(N2C(=O)N(Cc3ccccc3Cl)c3ccccc3S2(=O)=O)cc1 | active: 18.4 µM | 
COc1ccc(OC)c(NC(=O)CNC(c2ccccc2)c2ccccc2)c1 | inconclusive [inhibitor, single point] | 
COc1ccc(C2=NOC(COc3ccc4c(C)cc(=O)oc4c3)C2)c(OC)c1 (configuration not stated) | active: 5.17 µM | 
Cc1ccc(CNC(=O)CSc2nc3ccccc3c(=O)n2CC2CCCO2)cc1 (configuration not stated) | inconclusive [inhibitor, single point] | 
Clc1nc(CN2CCCCC2)nc2sc3c(c12)CCC3 | active: 18.4 µM | 
Cc1n[nH]c(=O)c2c(NC(=O)CSc3nc4ccccc4c(=O)n3C(C)C)oc(C)c12 | inconclusive [inhibitor, single point] | 
O=C(Nc1cc(C(F)(F)F)ccc1Cl)c1cnn(-c2ccccc2)c1-n1cccc1 | active: 23.1 µM | 
Cc1cc(C)c2nc(NC(=O)c3cc(C)on3)sc2c1 | inconclusive [inhibitor, partial curve] | 
CCCCOc1ccc(NC(=O)c2cnc(C)cn2)cc1 | inconclusive [inhibitor, partial curve] | 
CCOC(=O)c1c(C)[nH]c(C)c1S(=O)(=O)NC(CC)CN1CCOCC1 (configuration not stated) | inactive | 
Cc1nn(-c2ccc(F)cc2)c(C)c1NS(=O)(=O)c1ccc2ccccc2c1 | inconclusive [inhibitor, single point] | 
CCCCNS(=O)(=O)c1ccc2nc(SCC(=O)Nc3ccccc3Cl)[nH]c2c1 | inconclusive [inhibitor, single point] | 
Cc1cccc(-n2cnc(C(=O)N/N=C\c3ccc(Br)cc3)c2)n1 | inactive | 
CCc1ccc(NC(=O)C(CC)Sc2nc3cc4c(cc3c(=O)n2Cc2ccco2)OCO4)cc1 (configuration not stated) | inconclusive [inhibitor, single point] | 
CC1CCN(CCOc2ccccc2-c2ccccc2)CC1 | inconclusive [inhibitor, single point] | 
COc1ccccc1NC(=O)C1C2C=CC(C2)C1C(=O)NCc1cccnc1 (configuration not stated) | inactive | 
CCN(CC)CCNC(=O)c1ccc(NC(=O)c2ccccc2-c2ccc(C(F)(F)F)cc2)cc1 | inconclusive [inhibitor, single point] | 
